Reference: the supplement of paper PMC10338343
± gives the standard deviation. Over roughly 6,600 sequences, “pre-steady-state target cleavage rate” has its median near 0.07; the highest 2% begin near 0.72. The list shows a part of the results, in another mix than the full data.

tested on: MIWI (PIWIL1) piRISC loaded with Kctd7 piRNA (30 nt); test: pre-steady-state target cleavage rate (min^-1); MIWI and MILI are mouse PIWI proteins and EfPiwi is from a freshwater sponge; tags in brackets are library labels; higher = faster piRNA-guided slicing of the target; settings: guide: Kctd7 piRNA 5'p-UGUUAAUCUCUCAGAGAAGGUGACAGUGAU; auxiliary factor: 500 nM mouse GTSF1
How it was run: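 In this Cleave-'n-Seq assay, uncleaved targets were sequenced and normalised to depth and to weakly complementary targets. They came from a transcribed, DNA-blocked target RNA library […] mixed with 1 nM active affinity-purified piRISC carrying one synthetic guide, with or without 500 nM GTSF1 partner protein, in HEPES–potassium acetate buffer at 33 °C for 0–8 or 0–960 min. After three trials were pooled and k3 was capped at 0.0001 min^-1, the pre-steady-state cleavage rate was obtained from a burst-and-steady-state fit.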
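Note: 1 nM active piRISC with 0.1 nM target library at 33 °C single turnover.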

Sequence	pre-steady-state target cleavage rate
UACAGACUCACCUUCUCUGAGAGAUUAUGA	0.0873 ± 0.014
AUCUCUGUGACCUUCUCUGAGAGAUUAACA	0.597 ± 0.03
UUCACUGUCACCUUGAGUGAGAGAUUAACA	0.0167 ± 0.0088
UAGUCUGUCACCUUCUCUGAGACAUUAAGA	0.00787 ± 0.0027
AUCACUCACACCUUCUCUGAGAGAUUAAGA	0.0991 ± 0.021
UAGUGACUCACCUUCUCUGAGAGAUAUAACA	0.142 ± 0.015
UAGACUGUCACCUUCUGUGAGAGAAUAACA	0.176 ± 0.025
UAGUCUGUCACCUUCUCAGAGAGAUUAUCA	0.142 ± 0.022
UAGUGACAGUCCUUCUCUGAGAAGAUUAACA	0.0051 ± 0.002
AUCACUGUGUCCUUCUCUGAGAGAUUAUGA	0.133 ± 0.034
UAGUGACACACCUUCUCUGAGAGAUUUUCA	0.0725 ± 0.017
AUCACUGUCACCUUCUCUGAGAGUUUUUGA	0.419 ± 0.093
UAGUGACACACCUACUCUGAGAGAUUAAGA	0.0629 ± 0.015
UAGUGUGUCACCUUCUCUCAGUGAUUAACA	0.00771 ± 0.004
UUCACACACACCUUCUCUGAGAGAUUAAGA	0.13 ± 0.024
UAGUGACUCACCUACUCUCAGAGAUUAACA	0.008 ± 0.0025
AUCACUGUCUGCUUCUCUGAGAGAUUAAGA	0.126 ± 0.021
UACACUGUCAGCAUCUCUGAGAGAUUAACA	0.462 ± 0.026
UAGUCAGUCACCUUCUCUGAGAGAUUUACA	0.308 ± 0.03
UAGUGUGUCACCUUACUCUGAGAGAUUAACA	0.23 ± 0.02
UAGUGAGUCACCUUCUCUGUGAGAUAUUGA	0.00571 ± 0.0037
UAGUGAGUCACCUUCUCUGAGAGAUAUACA	0.207 ± 0.029
UAGUGUGUGACCUUCUCUGAGAGAUAAACA	0.331 ± 0.037
UAGUGUGUCAGCUUCUGUGAGAGAUUAACA	0.442 ± 0.029

Sequence	pre-steady-state target cleavage rate
UUCACUGUCACCUUCUCUGAAAGAUUAACA	0.477 ± 0.02
UAGUGUGUCACCUUCUCUGAGAGAAAUAGA	0.00826 ± 0.0048
AUCACUGUCACCUUCUCUGACGAGAUUAACA	0.0322 ± 0.0096
UAGUGAGUCACCUUCUCUGAGACAUAAACA	0.16 ± 0.046
UAGUGACUCACCUCCUCUGAGAGAUUAACA	0.504 ± 0.034
UUCACUGUCACCUUCUCUGUGAGAUUAACA	0.26 ± 0.015
UACACUGUCACCUUCUCAGAGAGAUAAACA	0.0806 ± 0.01
UUCACUGUCACCUUCUCACAGAGAUUUUGA	0.00887 ± 0.0043
UAGACUGUCACCUUCUGUGAGAGUUUAACA	0.114 ± 0.018
UAGUGACUCUCCUUCUCUGAGAGAUUUACA	0.0556 ± 0.009
UAGUGUGUGACCUUCUCUGAGAGAUUAUCA	0.163 ± 0.022
UAGUGACACACCUUCACUGAGAGUUUAACA	0.157 ± 0.039
AUCACUCUCACCUUCUCUGACAGAUUAACA	0.561 ± 0.025
UAGUGACAGUGGUUCUCUGAGGGAUUAACA	< 0.0001
UAGUGUGUCACCUUCUUCUGAGAGAUUAACA	0.0196 ± 0.0064
UACACUGUCACCUUCUCUGACAGAUUUUGA	0.00808 ± 0.005
UUCACUGUCACCUUCUCUGUCUGAUUAAGA	0.0116 ± 0.0055
UAGUCUCUCACCUUCUCUGUGAGAUUAACA	0.2 ± 0.015
UAGUCUGUCACCUUCUCUGAGAGAUUACCA	0.181 ± 0.026
UUCACUGUCACCUUCUCUGUCAGAUUAUGA	0.0162 ± 0.0084
UUCACUGUCACCUUCUCUGAGAGAAUAUGA	0.0687 ± 0.025
UAGACUCUCACCUUCUCUGAGAGAUUAUCA	0.197 ± 0.027
UUCUCUGUCACCUUGUCUGAGAGAUUAACA	0.243 ± 0.031
UAGUCUGUCACCUUCUCUGAGAGAGUUAACA	0.491 ± 0.065

Sequence	pre-steady-state target cleavage rate
UAGUGACACACCUUCUCUGCGAGAUUAACA	0.311 ± 0.035
UAGUGACAGACCUUCUCAGAGAGAUUAUCA	0.00707 ± 0.0056
UUCACUGUGACGUUCUCUGAGAGAUUAACA	0.59 ± 0.026
UUCACUGUCACCUUCUCUGAGAGAUUACACA	0.374 ± 0.054
UAGUGAGUCACGAUCUCUGAGAGAUUAAGA	0.0535 ± 0.012
UAGUGACUCACCUUCUCUGAGAGAUUAACCA	0.341 ± 0.028
UAGUGACACACGUUCUCUGUGAGAUUAACA	0.048 ± 0.0071
UAGUGACAGUCCUUCACUGAGACAUUAACA	0.00862 ± 0.0032
UAGUCUGUCAGCAUCUCUGAGAGAUUAACA	0.342 ± 0.026
AUCACUGUCACCUUCUCUGACACAUUAACA	0.0505 ± 0.0076
UACACUGUGCACCUUCUCUGAGAGAUUAACA	0.584 ± 0.041
UAGUCUCGUCACCUUCUCUGAGAGAUUAACA	0.571 ± 0.025
UAGUCUGUCACCAUCUCUGAGACAUUAACA	0.0849 ± 0.011
AUCACUAUCACCUUCUCUGAGAGAUUAACA	0.655 ± 0.037
UAGUGACAGUGGAACUCUGAGAGUUAACA	< 0.0001
UAGUGACAGUGCUUCUCUGUGACAUUAACA	< 0.0001
UAGUGAGUCACCUUCUCUGAGAGAAAUACA	0.0759 ± 0.018
UUCACUGACACCUUCUCUGAGAGAUUAACA	0.591 ± 0.033
UUCACUGUCACCAUCUCUGACAGAUUAACA	0.216 ± 0.021
UAGUGAGUCACCUUCUCUGAGAGAAUAUCA	0.124 ± 0.041
AUCACUGUGACCUUCUCUGAGAGAUUAUGA	0.141 ± 0.028
AUCACUGUCACCUUCACUGAGAGAUUAACA	0.589 ± 0.041
UAGACUGUCACCUUCACUGAGAGAUUAUCA	0.345 ± 0.058
UAGUGACAGUGGAAGAGACAGAGACUUAACA	< 0.0001
